Results as given in PMC6457909 (Science (New York, N.Y.), 2019).

System: group-2 HAs
Assay type: binding, influenza A virus

CC(=O)Nc1ccc2oc(-c3ccnc(C(=O)N4CCN([C@H](c5ccccc5)c5nnn(C)n5)CC4)c3)nc2c1 [JNJ4796]
binding to group-2 HAs: inability
